Measured values: PubChem BioAssay AID1347071 (National Center for Advancing Translational Sciences (NCATS), 2019)
The whole screen tested about 410,000 compounds, of which about 260 (0.063%) were called active. Inconclusive results, whose numbers are uncertain, are shown with a selection of clear calls. Calls come from the whole dose curve; as a rule, active = well fitted activation curve with a large enough effect; inconclusive = small, poorly fitted or top-dose-only effect; inactive = no such curve, though single readings can be large or run the other way. No potency is given beside an inconclusive call; the fits are too rough.

experiment: qHTS for compounds that reverse cellular toxicity of Amyloid beta (A-beta) peptide in yeast: Primary Screen; settings: yeast expressing A-beta42, growth rescue, OD600, 48 h; growth rescue: at 46.1 µM (top of the series), 0% DMSO, 100% iron-clioquinol control; note: nearly all actives have a fitted effect of over 55% in size
Procedure, shortened: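 Yeast A-beta toxicity model in growth medium with pinned compounds, 48 h at 30 C; growth read as absorbance at 600 nm. Normalized to FeCl3/clioquinol equimolar mix (positive) and DMSO (negative).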
Potency is the fitted concentration of half-maximal effect; tags give direction and shape of the fitted curve.

Row | SMILES | Potency | growth rescue
1 | CC(C)(C)c1cc2nc(NCc3cccc(Cl)c3)ccn2n1 | inconclusive [activator, single point] | –
2 | CCCNC(=O)C1(C)CCCN(Cc2cc(-c3ccccc3)n(C)n2)C1 (stereo unspecified) | – | inactive: -14.8%
3 | CC(C)CCN1NC2(CCC(C)CC2)NC1=S (stereo unspecified) | inconclusive [activator, single point] | –
4 | CCCc1c(C)c2cc(C)ccc2[nH]c1=O | – | inactive: -5.68%
5 | CC(C)CC(=O)NC(=S)Nc1nc(-c2cccc3ccccc23)cs1 | inconclusive [activator, partial curve, poor fit] | –
6 | CCOc1ccc(NC(=O)Cc2csc(COc3cccc(C)c3)n2)cc1 | – | inactive: -5.59%
7 | COc1ccc(-c2cc(N3CCCC3)n3ncnc3n2)cc1 | – | inactive: -2.81%
8 | Cc1ccc(C(=O)Cn2c(C(=O)O)cc3ccccc32)cc1 | inconclusive [activator, single point] | –
9 | Cc1cccc(NC(=O)CSc2cccc3cccnc23)c1 | – | inactive: 14.8%
10 | Cc1ccc(NC(=O)NCc2ccncc2)cc1Cl | inconclusive [activator, partial curve] | –
11 | CC(C)=CC(=O)OCC(=O)Nc1ccc(SC(F)F)cc1 | inconclusive [activator, partial curve, poor fit] | –
12 | CN1c2ccccc2Oc2c(c(=O)n(C)c(=O)n2C)C1c1cccc([N+](=O)[O-])c1 (stereo unspecified) | inconclusive [activator, full curve, poor fit] | –
13 | CC1CCC(NC(=O)C2(C)Cc3ccccc3C(=O)N2Cc2ccccc2Cl)CC1 (stereo unspecified) | – | inactive: -1.63%
14 | CCOC(=O)c1c(NC(=O)COC(=O)c2nc(Cl)ccc2Cl)sc2c1CCC2 | inconclusive [activator, partial curve, poor fit] | –
15 | COc1cc(NC(=O)c2nc3cc(C)c(C)cc3n(C)c2=O)cc(OC)c1OC | – | inactive: -6.07%
16 | Cc1cc(C)nc(N/N=C/c2ccccc2Cl)n1 | inconclusive [activator, single point] | –
17 | O=[N+]([O-])c1ccc(N2CCN(C(=S)NCc3ccc(Cl)cc3)CC2)cc1 | active: 5.62 µM | –
18 | CCOc1cc(CNC(=O)c2ccc(NC(=O)c3nsc4ccccc34)cc2)ccc1OC | – | inactive: -8.71%
19 | Cc1ccc(C(C)NC(=S)NC2CCCCC2)c(C)c1 (stereo unspecified) | active: 11.2 µM | –
20 | Nc1n[nH]c(-c2ccccc2[N+](=O)[O-])n1 | inconclusive [activator, single point] | –
21 | CSc1nc(Cl)c(Cc2ccc(OCC(C)C)cc2)c(N2CCOCC2)n1 | inconclusive [activator, single point] | –
22 | CCc1nnc(NC(=O)c2nc(S(=O)(=O)Cc3ccccc3)ncc2Cl)s1 | – | inactive: 5.85%
23 | CC(C)C1C(c2ccccc2)NC(c2ccccc2)CC1(O)c1ccc(F)cc1 (stereo unspecified) | inconclusive [activator, partial curve, poor fit] | –
24 | CCc1cccc(NC(=O)Cn2nc(CC)n3c(cc4cc(C)ccc43)c2=O)c1 | – | inactive: 2.28%

Row | SMILES | Potency | growth rescue
25 | COCc1cc(=O)[nH]c(Nc2nc3ccc(C)cc3o2)n1 | inconclusive [activator, single point] | –
26 | C=CCn1c(C)cc(C(=O)CSc2nnc(NCc3ccccc3)s2)c1C | inconclusive [activator, single point] | –
27 | Cc1c(C(=O)NCCSCc2c(F)cccc2Cl)cnn1-c1ccc(Cl)cc1 | – | inactive: -27.5%
28 | Clc1ccc(-c2nnc(-c3ccc(Br)cc3)c(N3CCSCC3)n2)cc1 | – | inactive: 7.21%
29 | O=C1C(Cc2ccccc2)Nc2ncnc(N3CCCCC3)c2N1Cc1ccc(Cl)cc1 (stereo unspecified) | inconclusive [activator, partial curve, poor fit] | –
30 | CCOC(=O)C1=C(c2ccccc2)Nc2c(c(=O)n(C)c(=O)n2C)C1c1ccc(O)c(OC)c1 (stereo unspecified) | inconclusive [activator, partial curve, poor fit] | –
31 | CC12CCC(=O)N1C(C(=O)Nc1cc(Cl)ccc1N1CCOCC1)CS2 (stereo unspecified) | inconclusive [activator, single point] | –
32 | CCc1ccccc1NC(=S)N1CCN(c2ccccc2F)CC1 | inconclusive [activator, partial curve, poor fit] | –
33 | COc1ccc(C(=O)O/N=C(\N)c2ccc(OC)c(OC)c2)c(OC)c1 | – | inactive: -32.1%
34 | Cc1nc(C)c(CCNS(=O)(=O)c2ccc(F)cc2)s1 | – | inactive: -14.3%
35 | O=[N+]([O-])c1cccc(Cl)c1CSc1ccccn1 | inconclusive [activator, single point] | –
36 | Cc1cccc(C)c1NC(=O)C(c1ccccc1)n1c(=O)c(-c2cc3ccccc3[nH]2)nc2ccccc21 (stereo unspecified) | inconclusive [activator, partial curve, poor fit] | –
37 | COc1ccccc1CN(C)C(=O)C(c1ccccc1)c1ccccc1 | – | inactive: 6.35%
38 | COc1ccc(C2CC(=O)N(CC(=O)Nc3ccc(C)c(Cl)c3)c3ccccc3S2)cc1OC (stereo unspecified) | – | inactive: -11.9%
39 | CCn1cc(C(=O)OCC(=O)Nc2ccc(C(C)C)cc2)c(=O)c2ccc(C)nc21 | inconclusive [activator, partial curve, poor fit] | –
40 | N/C(Cc1ccc(Cl)cc1Cl)=N\OC(=O)c1ccccc1F | – | inactive: -92.9%
41 | CC(C)(C)c1csc(NNC(=O)c2ccc(Br)cc2)n1 | inconclusive [activator, single point] | –
42 | CCCCOc1ccc(-c2c(C#N)c(N)[nH]c(=S)c2C#N)cc1 | inconclusive [activator, single point] | –
43 | CC(C)CC(=O)NC(=S)NNC(=O)c1cccc([N+](=O)[O-])c1 | inconclusive [activator, partial curve] | –
44 | COc1cccc(/C=N/Nc2ncnc3scc(-c4ccccc4)c23)c1O | inconclusive [activator, full curve, poor fit] | –
45 | CC12CC(NC(=O)N1CCc1ccccc1)c1cc(Cl)ccc1O2 (stereo unspecified) | inconclusive [activator, partial curve] | –
46 | COc1ccc(-c2coc3c2c(C)cc2oc(=O)c(CC(=O)O)c(C)c23)cc1 | – | inactive: 6.96%
47 | O=C(CSc1ncnc2ccccc12)NCC(=O)c1ccccc1 | inconclusive [activator, single point] | –
48 | Cc1ccc2c(C)cc(=S)[nH]c2c1 | inconclusive [activator, full curve, poor fit] | –

Row | SMILES | Potency | growth rescue
49 | COc1cc(C(=O)N2CCCCC2c2cc(C(=O)N3CCOCC3)no2)cc(OC)c1C (stereo unspecified) | – | inconclusive: -32% [activator]
50 | O=C(Cc1ccccc1F)c1ccc(O)cc1O | inconclusive [activator, partial curve] | –
51 | CCN(Cc1ccccc1)C(=O)CN1C(=O)NC2(CC(C)CC(C)(C)C2)C1=O (stereo unspecified) | inconclusive [activator, partial curve, poor fit] | –
52 | CCOC(=O)N1CCN(C(=O)c2ccc(C#CC3(O)CCCCC3)cc2)CC1 | inconclusive [activator, full curve, poor fit] | –
53 | COc1ccccc1C(=O)Nc1nc(-c2ccc3c(c2)OCCO3)cs1 | – | inactive: 9.93%
54 | CCOc1ccc(-n2ccnc2SCC(=O)NCc2ccc3c(c2)OCO3)cc1 | inconclusive [activator, partial curve, poor fit] | –
55 | CN1C(=O)[C@H]2[C@@H](c3ccc(C(F)(F)F)cc3)N[C@]3(CCCN(Cc4ccc(Cl)cc4)C3=O)[C@H]2C1=O | inconclusive [activator, single point] | –
56 | CCNc1nc(NC(C)C)nc(N(C#N)C(C)C(=O)N(C)C)n1 (stereo unspecified) | inconclusive [activator, single point] | –
57 | COc1cccc(CNC(=O)c2ccc3oc(=O)n(Cc4ccccc4)c3c2)c1 | inconclusive [activator, partial curve, poor fit] | –
58 | c1ccc2c(c1)[nH]c1c(N3CCCC3)ncnc12 | inconclusive [activator, single point] | –
59 | COc1ccc2c(c1)C(=O)Cc1ccccc1O2 | inconclusive [activator, partial curve, poor fit] | –
60 | COc1ccc(O)c(/C=N/Nc2nc(C)cc(-c3ccccc3)n2)c1 | inconclusive [activator, partial curve, poor fit] | –
61 | O=C1CC(=Nc2ccccc2)NN1c1ccccc1 | inconclusive [activator, partial curve] | –
62 | COc1ccc(/C=C2\C(=O)ON=C2c2ccccc2)cc1OC | – | inactive: -31.4%
63 | C(=N\Nc1nc(-c2cccnc2)nc2ccccc12)/c1ccccc1 | – | inactive: -7.24%
64 | CC(=C1C(=O)c2ccccc2C1=O)N1CCN(c2ccc(F)cc2)CC1 | inconclusive [activator, partial curve, poor fit] | –
65 | CC(CNC(=O)c1sc2ncccc2c1-n1cccc1)c1ccccc1 (stereo unspecified) | – | inactive: -14.5%
66 | Nc1cccc(Oc2c(F)c(F)c(Oc3cccc(N)c3)c(F)c2F)c1 | – | inactive: -66.9%
67 | CCCCC(=O)NC(=S)NNC(=O)CC | inconclusive [activator, single point] | –
68 | Cc1ccc(N(CC(=O)NC2CCCC2)C(=O)CCC(=O)Nc2ccccn2)cc1C | – | inactive: 10.4%
69 | O=C(CCC(=O)c1ccc(F)cc1)Nc1cc(Cl)cc(Cl)c1 | inconclusive [activator, partial curve] | –
70 | Cc1cccc(NC(=O)CSc2nc3c(oc4ccccc43)c(=O)n2-c2ccccc2)c1C | – | inactive: 1.62%
71 | Cc1nc(N)sc1C(=O)N/N=C/c1ccc([N+](=O)[O-])cc1 | inconclusive [activator, single point] | –
